Biological target: T1, Avidin (chicken) (chicken), P02701
T1 chain: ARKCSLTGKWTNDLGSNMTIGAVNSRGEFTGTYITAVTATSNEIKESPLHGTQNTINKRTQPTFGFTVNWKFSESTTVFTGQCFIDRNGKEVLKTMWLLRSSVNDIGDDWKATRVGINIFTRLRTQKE
Test: SEC; FPLC gel filtration, Superdex HR 10/30 column, 50 mM NaCO3 (pH 11.0), 150 mM NaCl; calibrated with IgG, BSA and ovalbumin; oligomeric state (tetramer)
Settings: remark: other sources report otherwise

B1: Avidin (chicken), P02701 25-152 (natural protein)
chain: T1 chain
B1 gave a stoichiometry N of 4.

Reference: publication PMC1282572
